cAMP reporter score and surface expression score data for 31 variants are collected here from the GPR68 mutational scans of Howard et al. (2025).

To fix the notation:
B1: GPR68, Q15743 (parent)
chain: MGNITADNSSMSCTIDHTIHQTLAPVVYVTVLVVGFPANCLSLYFGYLQIKARNELGVYLCNLTVADLFYICSLPFWLQYVLQHDNWSHGDLSCQVCGILLYENIYISVGFLCCISVDRYLAVAHPFRFHQFRTLKAAVGVSVVIWAKELLTSIYFLMHEEVIEDENQHRVCFEHYPIQAWQRAINYYRFLVGFLFPICLLLASYQGILRAVRRSHGTQKSRKDQIQRLVLSTVVIFLACFLPYHVLLLVRSVWEASCDFAKGVFNAYHFSLLLTSFNCVADPVLYCFVSETTHRDLARLRGACLAFLTCSRTGRAREAYPLGAPEASGKSGAQGEEPELLTKLHPAFQTPNSPGSGGFPTGRLA

In data set [1] the parent is B1. Put plainly: cAMP reporter score (Enrich2 score, wild type = 0); higher = more signal; HEK293T, FACS bins.
Variants of B1 are the subject of data set [2]. The experiment in a line: surface expression score (Enrich2 score, wild type = 0); higher = more signal; HEK293T, FACS bins.

Scores with a large standard error are left out. The source holds two more conditions with little spread; they are left out. Names with del lack the residues named; names with ins carry added residues between the positions named. For some assays here: How much ogerin was present is not stated here.

Turning to I15F, the cAMP reporter score in data set [1] (pH 5.5) is -1.77; in data set [1] (pH 6), -1.27; in data set [1] (pH 6, modulator: ogerin) it was -1.16; in data set [1] (pH 6.5, modulator: ogerin), -1.19. Besides, the surface expression score in data set [2] came out at 0.86.
With I15V, the cAMP reporter score in data set [1] (pH 5.5) was -0.337; in data set [1] (pH 6, modulator: ogerin), -0.132; in data set [1] (pH 6.5, modulator: ogerin) it was 1.67. Moreover, in data set [2], the surface expression score is -0.877.
For the variant I15N, the cAMP reporter score was -0.584 in data set [1] (pH 5.5); -0.203 in data set [1] (pH 6); -0.704 in data set [1] (pH 6, modulator: ogerin); -1.21 in data set [1] (pH 6.5, modulator: ogerin). The surface expression score in data set [2] was 0.275.
Take I15D: the cAMP reporter score in data set [1] (pH 5.5) is -1.3; in data set [1] (pH 6), -0.389; in data set [1] (pH 6, modulator: ogerin) it was -1.01; in data set [1] (pH 6.5, modulator: ogerin), -0.897. The surface expression score in data set [2] was -1.51.
For I15K the same measures were -0.664, -0.563, -1.06, -0.974 and -0.739.
Consider I15S, for which the cAMP reporter score in data set [1] (pH 5.5) is -0.303; in data set [1] (pH 6) it was -0.774; in data set [1] (pH 6, modulator: ogerin), 0.253; in data set [1] (pH 6.5, modulator: ogerin) it was 0.142. Further, in data set [2], the surface expression score is -0.096.
Take I15H: the cAMP reporter score is -0.815 in data set [1] (pH 5.5); -1.43 in data set [1] (pH 6); -0.839 in data set [1] (pH 6, modulator: ogerin); -0.678 in data set [1] (pH 6.5, modulator: ogerin). Also, in data set [2], the surface expression score stood at 1.47.
For I15T, the cAMP reporter score was 0.135 in data set [1] (pH 5.5); -0.532 in data set [1] (pH 6); -0.253 in data set [1] (pH 6, modulator: ogerin); -0.463 in data set [1] (pH 6.5, modulator: ogerin). In addition, in data set [2], the surface expression score was -0.431.
As for I15E, the cAMP reporter score in data set [1] (pH 5.5) is -1.81; in data set [1] (pH 6) it was -0.778; in data set [1] (pH 6, modulator: ogerin), -2.03; in data set [1] (pH 6.5, modulator: ogerin) it was -1.35. Further, the surface expression score in data set [2] was -1.22.
I15W: the cAMP reporter score is -0.682 in data set [1] (pH 5.5); -0.172 in data set [1] (pH 6); -0.606 in data set [1] (pH 6, modulator: ogerin); -0.346 in data set [1] (pH 6.5, modulator: ogerin). In addition, in data set [2], the surface expression score is 0.135.
On to I15L, for which the cAMP reporter score in data set [1] (pH 5.5) is -1.02; in data set [1] (pH 6) it was 0.03; in data set [1] (pH 6, modulator: ogerin) it was -0.989; in data set [1] (pH 6.5, modulator: ogerin), -0.47. The surface expression score in data set [2] came out at 0.096.
For I15R, the cAMP reporter score was 0.052 in data set [1] (pH 5.5); -0.391 in data set [1] (pH 6); -0.623 in data set [1] (pH 6, modulator: ogerin); -0.544 in data set [1] (pH 6.5, modulator: ogerin). The surface expression score in data set [2] was -0.389.
For I15P the same measures were 0.354, 3.62, 0.526, 2.9 and -0.348.
For I15G, the cAMP reporter score in data set [1] (pH 5.5) is -0.781; in data set [1] (pH 6) it was 0.006; in data set [1] (pH 6, modulator: ogerin), -1.6; in data set [1] (pH 6.5, modulator: ogerin), -0.809. In addition, the surface expression score in data set [2] was -0.688.
For T22_L23del, the cAMP reporter score in data set [1] (pH 5.5) was -1.09; in data set [1] (pH 6) it was -0.203; in data set [1] (pH 6, modulator: ogerin), -1.11; in data set [1] (pH 6.5, modulator: ogerin), -0.586. In addition, the surface expression score in data set [2] was -2.8.
For D16_H17insGSG the same measures were -0.149, -0.008, 0.619, -0.075 and -0.352.
For L32D the same measures were -1.82, -1.74, -1.4, -2.03 and -2.51.
With L32G, the cAMP reporter score is -0.239 in data set [1] (pH 5.5); -1.41 in data set [1] (pH 6); -0.614 in data set [1] (pH 6.5, modulator: ogerin). The surface expression score in data set [2] is -1.28.
With L32F, the cAMP reporter score in data set [1] (pH 5.5) was -0.316; in data set [1] (pH 6), -0.482; in data set [1] (pH 6, modulator: ogerin), -0.824; in data set [1] (pH 6.5, modulator: ogerin) it was -0.919. The surface expression score in data set [2] is 0.08.
On to L32C, for which the cAMP reporter score in data set [1] (pH 5.5) is -0.309; in data set [1] (pH 6), -0.9; in data set [1] (pH 6, modulator: ogerin) it was -0.439; in data set [1] (pH 6.5, modulator: ogerin) it was -1.06. Besides, the surface expression score in data set [2] was -2.26.
For L32A the same measures were -0.305, -0.903, -0.127, -1.01 and -2.56.
L32E: the cAMP reporter score is -0.192 in data set [1] (pH 5.5); -0.582 in data set [1] (pH 6); -0.668 in data set [1] (pH 6.5, modulator: ogerin). Moreover, in data set [2], the surface expression score was -2.09.
T30_V31insGSG: the cAMP reporter score in data set [1] (pH 5.5) is -1.93; in data set [1] (pH 6), -1.15; in data set [1] (pH 6.5, modulator: ogerin), -0.255.
Take I15del: the cAMP reporter score in data set [1] (pH 5.5) is -1.27; in data set [1] (pH 6) it was -1.06; in data set [1] (pH 6, modulator: ogerin), -1.45; in data set [1] (pH 6.5, modulator: ogerin), -0.948. In data set [2], the surface expression score is -1.56.
With T18_I19insGS, the cAMP reporter score in data set [1] (pH 5.5) is -0.18; in data set [1] (pH 6) it was 0.784; in data set [1] (pH 6, modulator: ogerin), 0.494; in data set [1] (pH 6.5, modulator: ogerin), 1.5. In data set [2], the surface expression score was 0.394.
As for P25_V26del, the cAMP reporter score in data set [1] (pH 5.5) was -1.28; in data set [1] (pH 6), -1.09; in data set [1] (pH 6, modulator: ogerin) it was -0.926; in data set [1] (pH 6.5, modulator: ogerin), -0.681. Further, in data set [2], the surface expression score is -1.85.
Take T14_I15insG: the cAMP reporter score in data set [1] (pH 5.5) was -0.504; in data set [1] (pH 6, modulator: ogerin), -0.311; in data set [1] (pH 6.5, modulator: ogerin), 1.95. In data set [2], the surface expression score is -1.29.
As for A24_P25insG, the cAMP reporter score in data set [1] (pH 5.5) was -1.03; in data set [1] (pH 6), -1.37; in data set [1] (pH 6, modulator: ogerin), -1.55; in data set [1] (pH 6.5, modulator: ogerin) it was -0.647. For the same variant, the surface expression score in data set [2] was -2.31.
For T22_A24del the same measures were -1.21, 0.189, -2.29, -1.59 and -2.
Consider T30_V31insGS, for which the cAMP reporter score in data set [1] (pH 5.5) is -0.482; in data set [1] (pH 6) it was -0.092; in data set [1] (pH 6, modulator: ogerin), -0.575; in data set [1] (pH 6.5, modulator: ogerin) it was -0.912. Also, the surface expression score in data set [2] is -2.31.
As for V27_Y28del, the cAMP reporter score in data set [1] (pH 5.5) was -1.37; in data set [1] (pH 6) it was -0.833; in data set [1] (pH 6, modulator: ogerin) it was -1.77; in data set [1] (pH 6.5, modulator: ogerin) it was -0.823. Further, in data set [2], the surface expression score was -2.36.
